Source: article PMC4336329 (PLoS ONE, 2015)
The whole screen tested about 310,000 compounds, of which about 2,200 (0.71%) showed an effect of 50% or more. The effect is printed as a negative number. This is one part of the list.

molecular target: human ether-à-go-go-related gene (hERG) potassium channel (human, UniProt Q12809); assay: primary screen, population patch clamp on CHO cells stably expressing hERG
Sequence (Q12809 whole entry, looked up): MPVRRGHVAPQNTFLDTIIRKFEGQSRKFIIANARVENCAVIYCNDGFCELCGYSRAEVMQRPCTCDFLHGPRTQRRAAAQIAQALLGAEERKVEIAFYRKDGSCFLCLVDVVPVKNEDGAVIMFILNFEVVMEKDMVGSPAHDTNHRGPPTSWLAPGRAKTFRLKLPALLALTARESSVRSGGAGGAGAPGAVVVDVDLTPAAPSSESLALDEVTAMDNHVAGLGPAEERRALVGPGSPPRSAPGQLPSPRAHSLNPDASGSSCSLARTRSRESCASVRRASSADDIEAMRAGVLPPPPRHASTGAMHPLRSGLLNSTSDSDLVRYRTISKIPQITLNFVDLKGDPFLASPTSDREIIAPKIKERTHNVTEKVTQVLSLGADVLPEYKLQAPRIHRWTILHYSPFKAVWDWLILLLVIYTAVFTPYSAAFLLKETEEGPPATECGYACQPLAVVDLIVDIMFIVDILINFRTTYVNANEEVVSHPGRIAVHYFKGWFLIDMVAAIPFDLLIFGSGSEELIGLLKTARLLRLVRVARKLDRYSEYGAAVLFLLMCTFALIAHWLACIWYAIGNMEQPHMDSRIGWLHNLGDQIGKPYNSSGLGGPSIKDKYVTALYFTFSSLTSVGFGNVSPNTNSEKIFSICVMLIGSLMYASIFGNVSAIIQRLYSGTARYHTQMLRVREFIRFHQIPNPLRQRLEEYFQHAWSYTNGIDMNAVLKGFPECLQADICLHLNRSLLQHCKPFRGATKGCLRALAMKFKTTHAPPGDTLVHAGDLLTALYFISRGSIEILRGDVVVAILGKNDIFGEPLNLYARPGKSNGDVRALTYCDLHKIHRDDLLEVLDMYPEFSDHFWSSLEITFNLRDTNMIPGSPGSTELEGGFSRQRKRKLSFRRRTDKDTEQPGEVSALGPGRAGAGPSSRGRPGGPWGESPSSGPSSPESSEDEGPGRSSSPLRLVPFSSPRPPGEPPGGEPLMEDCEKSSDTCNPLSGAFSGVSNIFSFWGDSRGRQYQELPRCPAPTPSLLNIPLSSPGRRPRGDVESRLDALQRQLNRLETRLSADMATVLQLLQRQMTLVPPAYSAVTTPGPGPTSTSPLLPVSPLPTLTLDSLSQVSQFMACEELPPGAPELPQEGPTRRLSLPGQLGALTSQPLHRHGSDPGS

Compared with `COCCn1cnnc1SCC(=O)Nc1ccc(N2CCCCC2)cc1`, `CCN(CC)C(=O)COc1ccc(S(=O)(=O)N2CCCC2)cc1` is higher in “hERG current change (%, negative = inhibition) at 1uM” value: 0.874% for the first, 12.3% for the second.

Compared with `Cc1ccc(CSc2nnc(-c3ccco3)n2N)cc1`, `Cc1cccc(OCC(=O)Nc2nnc(-c3ccco3)s2)c1` is lower in “hERG current change (%, negative = inhibition) at 1uM” value: 11.2% for the first, -1.59% for the second.

Going from `CCOc1ccc(S(=O)(=O)Nc2cccc(C(=O)N3CCN(C(C)=O)CC3)c2)cc1` to `CCc1ccc(S(=O)(=O)N2CCN(C(=O)C3CCN(C(C)=O)CC3)CC2)cc1`, the “hERG current change (%, negative = inhibition) at 1uM” value rises from -15.3% to 10.2%.

Going from `NC(=O)c1nsc(C(=O)N(CC(=O)NC2CCCCC2)c2cccc(F)c2)c1N` to `Cc1ccc(NC(=O)c2cccs2)cc1NC(=O)c1ccc(F)cc1`, the “hERG current change (%, negative = inhibition) at 1uM” value falls from 9.26% to 3.68%.

Compared with `CC(C)COn1c(=S)[nH]c2ccccc2c1=O`, `CCNc1nc(=S)nc(NCc2ccccc2)[nH]1` is higher in “hERG current change (%, negative = inhibition) at 1uM” value: -3.51% for the first, 5.53% for the second.

Going from `Cc1ccc(C)n1-c1ccc(C(=O)O)cc1` to `O=C(O)c1ccc2c3c(cccc13)C(=O)N(OS(=O)(=O)c1ccccc1)C2=O`, the “hERG current change (%, negative = inhibition) at 1uM” value falls from 21.3% to 12.5%.

Compared with `COc1cccc(OCCOc2ccc(/C=C3\C(=N)N4N=C(S(C)(=O)=O)SC4=NC3=O)cc2OC)c1`, `COCC(=O)N(Cc1cc2cc(OC)ccc2[nH]c1=O)c1ccccc1OC` is lower in “hERG current change (%, negative = inhibition) at 1uM” value: 17.2% for the first, 0.229% for the second.

First: O=C1CC(=O)N(c2ccc3c(c2)OCO3)C(=O)N1
Second: CC(CNC(=O)c1ccc2c(c1)OCO2)c1ccc([N+](=O)[O-])cc1 (stereo not shown)
The “hERG current change (%, negative = inhibition) at 1uM” value of the first is lower: 6.07% for the first, 12.7% for the second.

Going from `CCCS(=O)(=O)N1CCCC(C(=O)NCCN2CCOCC2)C1` (stereo not shown) to `COC(=O)CCCC(=O)N1CCOCCN(C(=O)CCCC(=O)OC)CCOCC1`, the “hERG current change (%, negative = inhibition) at 1uM” value rises from 5.53% to 5.72%.

First: O=[N+]([O-])C(/C=C(\Cl)[N+](=O)[O-])=C(N1CCCCC1)N1CCCCC1
Second: Cc1ccn2c(CNC(C)c3cn(C)nc3C)c(C(=O)N3CCCCCC3)nc2c1 (stereo not shown)
The “hERG current change (%, negative = inhibition) at 1uM” value of the first is lower: -0.394% for the first, 16.9% for the second.

Going from `CCn1ncc([N+](=O)[O-])c1C(=O)Nc1cc(C)on1` to `Cn1ncc([N+](=O)[O-])c1C(=O)Nc1ccc(-c2nc3ccccc3[nH]2)cc1`, the “hERG current change (%, negative = inhibition) at 1uM” value falls from 5.38% to 4.05%.

Going from `CCN(CC)CCN(C(=O)C1=COCCO1)c1nc2c(OC)ccc(OC)c2s1.Cl` to `CCC(C(=O)NCCc1ccco1)n1nc(C)c2c(C)n(-c3ccccc3)nc2c1=O` (stereo not shown), the “hERG current change (%, negative = inhibition) at 1uM” value rises from -84.9% to 9.12%.

First: O=C(Nn1cnnc1)c1cc(Br)ccc1Cl
Second: NC(=O)c1ccccc1NC(=O)Nc1ccccc1Cl
The “hERG current change (%, negative = inhibition) at 1uM” value of the first is lower: 12.2% for the first, 15.5% for the second.

Going from `CCCCN(C(=O)c1cc(-c2ccco2)nc2ccccc12)c1c(N)n(CCC)c(=O)[nH]c1=O` to `CCc1ccc2c(COC(=O)c3n[nH]c4ccccc34)cc(=O)oc2c1`, the “hERG current change (%, negative = inhibition) at 1uM” value rises from 3.96% to 14.2%.

Compared with `OC(COc1ccc2cc(Br)ccc2c1)CN1CCCC1` (stereo not shown), `N#Cc1c(N)n(CCOC(=O)c2cccc(Br)c2)c2nc3ccccc3nc12` is higher in “hERG current change (%, negative = inhibition) at 1uM” value: -12.9% for the first, 7.94% for the second.

Compared with `O=C(NCCCc1ccccc1)c1ccc(Br)o1`, `COc1cc(C=O)c(Br)cc1OCC(=O)NCCc1ccccc1` is higher in “hERG current change (%, negative = inhibition) at 1uM” value: -5.61% for the first, 6.21% for the second.

First: CNC(=S)Nc1ccc2nc(C)oc2c1
Second: Cc1ccc2cc(C=O)c(N(C)C)nc2c1
The “hERG current change (%, negative = inhibition) at 1uM” value of the first is lower: 6.89% for the first, 11.9% for the second.

Going from `CC(=O)Nc1nnc(-c2c(-c3c(Cl)cccc3Cl)noc2C)o1` to `Cc1cccc(NS(=O)(=O)c2nnc(NC(=O)c3ccc(C)c(C)c3)s2)c1`, the “hERG current change (%, negative = inhibition) at 1uM” value rises from -0.125% to 12.6%.

Going from `CCN1CCN(S(=O)(=O)c2cccc([N+](=O)[O-])c2)CC1` to `O=c1[nH]c(Cl)ccc1CN1CCOCC1`, the “hERG current change (%, negative = inhibition) at 1uM” value falls from 17.2% to 10.1%.

First: [O-]/C(=C(\C(=S)NCc1ccccc1)[n+]1ccccc1)c1ccc(Cl)s1
Second: Cc1ccc(C(C)n2cc(C(=O)NCc3ccccn3)nn2)cc1 (stereo not shown)
The “hERG current change (%, negative = inhibition) at 1uM” value of the first is lower: 0.527% for the first, 12.9% for the second.

Going from `Cc1nc(-c2ccc(Cl)cc2)sc1C1(C)CC(c2ccc(OC(F)(F)F)cc2)=NO1` (stereo not shown) to `CCc1nnc2sc(-c3ccc(NC(=O)c4ccco4)cc3)nn12`, the “hERG current change (%, negative = inhibition) at 1uM” value falls from 15.6% to 11.5%.

Going from `Cn1c(Cn2nnc3ccccc32)nnc1SCC(=O)N1CCc2ccccc21` to `Cc1c(NS(=O)(=O)c2cccs2)cccc1-c1nc2cccnc2s1`, the “hERG current change (%, negative = inhibition) at 1uM” value rises from 2.05% to 7.99%.

Compared with `CC(=C\C(=O)O)/C(=C/c1ccco1)C(=O)O`, `CC(C)C1Cc2nc(Cl)c(C#N)cc2CO1` (stereo not shown) is higher in “hERG current change (%, negative = inhibition) at 1uM” value: 4.06% for the first, 6.32% for the second.
